# Laboratory results reported in paper PMC12040169 (PLOS Biology, 2025).
# The other results are listed elsewhere or left out.
# Tested on: T1, C. trachomatis L2/434/Bu expressing GFP (CTL2-GFP)
# T1 construct: L2/434/Bu GFP intracellular growth in HeLa cells
# Parameters: species or system HeLa; C. trachomatis total inclusion area by high-content imaging, normalised to DMSO
# Conditions: total inclusion area; 28.5 h, 10 µM; inhibitor
# Procedure, shortened: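 Post-fluorescence-read fixation, DNA staining with Hoechst and high-content imaging; GFP inclusion area and number per well, and nuclei counts, used as proxies for bacterial growth and host viability.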
row,SMILES,% of control remaining
1,Cc1ccc(-c2nnc(CNC(=O)C3(c4ccccc4)CC3)o2)s1 [CBK284642],65.8143
2,N#Cc1nccnc1S(=O)(=O)CCO [CBK023595],82.6535
3,CC(C)(C)c1oc(C(=O)O)cc1CN1CCCC1 [CBK287136],95.4823
4,CC(C)(O)CCN(Cc1ccc(-c2ccc(S(C)(=O)=O)cc2)nc1)C1CCN(C(=O)OC(C)(C)C)CC1 [CBK167517],99.2056
5,CCCCOc1ccc(-c2nnn(CC(=O)NCc3ccccc3)n2)cc1 [CBK068557],68.8728
6,COc1cccc(CNCc2ccco2)c1OCc1ccccc1F [CBK270271C],71.1519
7,COc1cccc(/C=N/NC(=O)C(=O)NCc2ccccn2)c1O [CBK262097],96.7031
8,c1cncc(-c2cncc(NCC3CCOCC3)n2)c1 [CBK037195],144.713
9,C=CCn1c(SCC(=O)O)nnc1-c1ccc([N+](=O)[O-])cc1 [CBK262736],94.4047
10,COC(=O)C1(Cc2cc(-c3ccc(F)cc3)no2)CCOCC1 [CBK285329],99.409
11,Cc1c(S(=O)(=O)N2CCN(C)CC2)sc2ccc(C(C)C)cc12 [CBK170362],71.8492
12,COc1cccc(C(=O)Nc2nc3ccccc3n2Cc2ccccc2)c1OC [CBK299811],99.1553
13,Cc1nc2ccccc2c(C)c1C(=O)OCc1nc(N)nc(N(C)C)n1 [CBK295627],72.0907
14,O=C(NC1CCCCCC1)c1ccc(COCC(F)(F)C(F)F)cc1 [CBK059012],36.306
15,CN(C)C(=O)CN1CCC2(C/C=C/COc3ccccc3C(=O)NC[C@@H](Cc3ccccc3)NC2=O)CC1 [CBK292185],102.331
16,Cn1cc(Nc2nc(-c3ccc(CCNS(C)(=O)=O)cc3)cs2)cn1 [CBK305065],90.754
17,CC(CC(=O)N1CCC(c2cc3cccnc3[nH]2)CC1)n1cccn1 (stereo not drawn) [CBK285036],92.4923
18,CCOc1cc(CNc2nc[nH]n2)cc(Cl)c1OCc1ccccc1F [CBK288088],99.2111
19,CCCc1[nH]nc(O)c1Cc1ccc(Cl)cc1 [CBK075013],107.089
20,Cc1ccc(CSc2nnc(-c3ccc(NC(=O)/C=C/c4ccccc4)cc3)n2C)cc1 [CBK263850],98.129
21,Cc1ccccc1N1CC(C(=O)Nc2cccnc2)CC1=O (stereo not drawn) [CBK288138],100.13
22,COc1ccccc1C(=O)Nc1ccccc1C(=O)Nc1ccc(C(=O)O)cc1 [CBK268625],141.961
23,CCN(C(=O)c1cn2c3c(cccc3c1=O)CC2)C1CCOC(C)(C)C1 (stereo not drawn) [CBK307332],108.387
24,COc1ccc(S(=O)(=O)N(CCc2ccccc2)CC(=O)O)cc1C [CBK268505],102.851
25,COc1ccc(F)cc1-c1ccccc1CC1(C(=O)NCCc2ccccc2)CCOCC1 [CBK286424],91.7225
26,CC(C)c1ccc(C(C)NC(=O)Cn2cc(C(=O)NC3CCCCC3)ccc2=O)cc1 (stereo not drawn) [CBK286097],95.6874

row,SMILES,% of control remaining
1,Cn1c2ccccc2c2ncn(CCS)c(=O)c21 [CBK288412],87.4208
2,Cc1nnc(S)n1CC(=O)n1c2c(c3ccccc31)CCCC2 [CBK266244],95.8871
3,Cc1[nH]c(C(=O)NCCc2ccco2)c(C)c1C(=O)OC(C)C [CBK295180],119.357
4,Cc1nccn1CCN(C)C(=O)C1CC2C=CC1C21CC1 (stereo not drawn) [CBK282084],93.904
5,CCn1c(C(O)c2ccc(OCc3ccccc3)cc2)nc2ccccc21 (stereo not drawn) [CBK263458],110.587
6,O=C(Nc1ccccc1)N1C[C@@H]2OCC(=O)N(Cc3ccc(F)cc3)[C@@H]2C1 [CBK289683],95.6939
7,O=C(NCCc1c[nH]cn1)Nc1cccc(C(F)(F)F)c1 [CBK269822],82.5109
8,Cc1ccc(NC(=O)CSc2nnc(N)[nH]2)cc1 [CBK034301],90.9572
9,CCOc1ccc(S(=O)(=O)N2CCCN(Cc3ccc(F)cc3F)CC2)c2cccnc12 [CBK062757],78.4846
10,COc1cc(OC)nc(N2CCN(c3nccnc3NS(=O)(=O)C3CC3)CC2)n1 [CBK048698],89.469
11,NS(=O)(=O)c1ccc(NC(=O)c2cc3c(n(-c4ccccc4)c2=O)CCCC3=O)cc1 [CBK266467],122.678
12,COc1cc(CN2CCNCC2)c2ccn(S(=O)(=O)c3ccccc3C#N)c2c1 [CBK144486T],79.5748
13,CS(=O)(=O)N1CC2(CCN(CC3COc4ccccc4O3)CC2)c2ccccc21 (stereo not drawn) [CBK115461T],70.3252
14,CCOC(=O)C1CCCN(C(=O)Cn2c(C)nc3ccccc3c2=O)C1 (stereo not drawn) [CBK306150],57.6634
15,Cc1cccc(C(=O)Nc2nnc(-c3ccncc3)o2)c1 [CBK287430],104.811
16,O=C(Nc1ccc(F)cc1)c1ccccc1NS(=O)(=O)c1ccc(Br)cc1 [CBK045438],54.1873
17,Cc1cc(C[C@@H]2COC[C@H]2NCc2ccccc2C(F)(F)F)on1 [CBK285464],108.74
18,O=C(Nc1ccccc1)Nc1ccc([N+](=O)[O-])cc1 [CBK016975],78.5419
19,O=C1CN(C(=O)Nc2ccc(Cl)cc2)CCN1 [CBK155861],100.286
20,CCn1nc(-c2ccc(Cl)cc2)c2c(=O)n(C)c(=O)[nH]c21 [CBK287845],81.1691
21,CC(C)C(=O)Nc1cc2cccnc2nc1-c1ccc(N(C)C)cc1 [CBK073650],106.594
22,CCN(CCCNC(=O)c1cc(-c2cccnc2)nc2ccccc12)c1cccc(C)c1 [CBK294465],105.871
23,COc1ccc(CN2CCN(c3nccnc3OC3CCCCC3)CC2)cc1 [CBK082830T],84.119
24,O=c1cc(O)c2c(=O)[nH]c(=O)n(-c3ccccc3)c2[nH]1 [CBK287907],107.826
25,O=c1[nH]c2ccccc2n1CCCN1CCN(c2nccnc2Oc2ccc(F)cc2)CC1 [CBK083027T],77.0119
